# Data published in the supplement of paper PMC8728848.
# The other results are listed elsewhere or left out.
# What was measured:
# Assay in all cases: glycan array binding signal (z-score within array); higher = stronger binding
# Details in all cases: glycan notation: IUPAC condensed, linker removed
# [1] = biological target: Neu5Ac(a2-3)Gal(b1-3)[Fuc(a1-4)]GlcNAc
# Summary of the method: (§1)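 The binding signal is a Z-score computed within each array. Data were drawn from 3228 arrays in the Consortium for Functional Glycomics database, restricted to those with a known protein sequence. Scores were averaged over arrays of the same protein sequence at different concentrations or buffers, and over linkers, and negative values can be taken as non-binding.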
# [2] = biological target: Neu5Ac(a2-3)Gal(b1-3)[Fuc(a1-4)]GlcNAc(b1-3)Gal(b1-4)[Fuc(a1-3)]GlcNAc
# Summary of the method: as §1
# [3] = biological target: Neu5Ac(a2-3)Gal(b1-3)[Neu5Ac(a2-3)Gal(b1-4)]GlcNAc
# Summary of the method: as §1
# [4] = biological target: Neu5Ac(a2-3)Gal(b1-3)[Neu5Ac(a2-6)]GalNAc
# Summary of the method: as §1
# [5] = biological target: Neu5Ac(a2-3)Gal(b1-4)Glc
# Summary of the method: as §1
# [6] = biological target: Neu5Ac(a2-3)Gal(b1-4)GlcNAc
# Summary of the method: as §1
# [7] = biological target: Neu5Ac(a2-3)Gal(b1-4)GlcNAc(b1-2)Man(a1-3)[GlcNAc(b1-2)Man(b1-4)GlcNAc(b1-2)Man(a1-6)]Man(b1-4)GlcNAc(b1-4)GlcNAc
# Summary of the method: as §1
# [8] = biological target: Neu5Ac(a2-3)Gal(b1-4)GlcNAc(b1-2)Man(a1-3)[Neu5Ac(a2-6)Gal(b1-4)GlcNAc(b1-2)Man(a1-6)]Man(b1-4)GlcNAc(b1-4)GlcNAc
# Summary of the method: as §1
# [9] = biological target: Neu5Ac(a2-3)Gal(b1-4)GlcNAc(b1-3)Gal(b1-3)GlcNAc
# Summary of the method: as §1
# [10] = biological target: Neu5Ac(a2-3)Gal(b1-4)GlcNAc(b1-3)Gal(b1-4)GlcNAc
# Summary of the method: as §1
# [11] = biological target: Neu5Ac(a2-3)Gal(b1-4)GlcNAc(b1-3)Gal(b1-4)GlcNAc(b1-3)Gal(b1-4)GlcNAc
# Summary of the method: as §1
# [12] = biological target: Neu5Ac(a2-3)Gal(b1-4)GlcNAc(b1-3)Gal(b1-4)[Fuc(a1-3)]GlcNAc
# Summary of the method: as §1
# [13] = biological target: Neu5Ac(a2-3)Gal(b1-4)GlcNAc(b1-6)[Gal(b1-3)]GalNAc
# Summary of the method: as §1
# [14] = biological target: Neu5Ac(a2-3)Gal(b1-4)GlcNAc(b1-6)[Neu5Ac(a2-3)Gal(b1-3)]GalNAc
# Summary of the method: as §1
# [15] = biological target: Neu5Ac(a2-3)Gal(b1-4)GlcNAc6S
# Summary of the method: as §1
# [16] = biological target: Neu5Ac(a2-3)Gal(b1-4)[Fuc(a1-3)]GlcNAc
# Summary of the method: as §1
# [17] = biological target: Neu5Ac(a2-3)Gal(b1-4)[Fuc(a1-3)]GlcNAc(b1-3)Gal
# Summary of the method: as §1
# [18] = biological target: Neu5Ac(a2-3)Gal(b1-4)[Fuc(a1-3)]GlcNAc(b1-3)Gal(b1-4)GlcNAc
# Summary of the method: as §1
# [19] = biological target: Neu5Ac(a2-3)Gal(b1-4)[Fuc(a1-3)]GlcNAc(b1-3)Gal(b1-4)[Fuc(a1-3)]GlcNAc(b1-3)Gal(b1-4)[Fuc(a1-3)]GlcNAc
# Summary of the method: as §1
# [20] = biological target: Neu5Ac(a2-3)Gal(b1-4)[Fuc(a1-3)]GlcNAc(b1-6)[Gal(b1-3)]GalNAc
# Summary of the method: as §1
# [21] = biological target: Neu5Ac(a2-3)Gal(b1-4)[Fuc(a1-3)]GlcNAc6S
# Summary of the method: as §1
# [22] = biological target: Neu5Ac(a2-3)Gal6S(b1-4)GlcNAc
# Summary of the method: as §1
# [23] = biological target: Neu5Ac(a2-3)Gal6S(b1-4)[Fuc(a1-3)]GlcNAc
# Summary of the method: as §1
# [24] = biological target: Neu5Ac(a2-3)GalNAc
# Summary of the method: as §1
# [25] = biological target: Neu5Ac(a2-3)GalNAc(b1-4)GlcNAc
# Summary of the method: as §1
# [26] = biological target: Neu5Ac(a2-3)[GalNAc(b1-4)]Gal(b1-4)Glc
# Summary of the method: as §1
# [27] = biological target: Neu5Ac(a2-3)[GalNAc(b1-4)]Gal(b1-4)GlcNAc
# Summary of the method: as §1
# [28] = biological target: Neu5Ac(a2-3)[Neu5Ac(a2-6)]GalNAc
# Summary of the method: as §1
# [29] = biological target: Neu5Ac(a2-6)Gal
# Summary of the method: as §1
# [30] = biological target: Neu5Ac(a2-6)Gal(b1-4)Glc
# Summary of the method: as §1
# [31] = biological target: Neu5Ac(a2-6)Gal(b1-4)GlcNAc
# Summary of the method: as §1
# [32] = biological target: Neu5Ac(a2-6)Gal(b1-4)GlcNAc(b1-2)Man(a1-3)[Gal(b1-4)GlcNAc(b1-2)Man(a1-6)]Man(b1-4)GlcNAc(b1-4)GlcNAc
# Summary of the method: as §1
# [33] = biological target: Neu5Ac(a2-6)Gal(b1-4)GlcNAc(b1-2)Man(a1-3)[GlcNAc(b1-2)Man(a1-6)]Man(b1-4)GlcNAc(b1-4)GlcNAc
# Summary of the method: as §1
# [34] = biological target: Neu5Ac(a2-6)Gal(b1-4)GlcNAc(b1-2)Man(a1-3)[GlcNAc(b1-2)Man(b1-4)GlcNAc(b1-2)Man(a1-6)]Man(b1-4)GlcNAc(b1-4)GlcNAc
# Summary of the method: as §1
# [35] = biological target: Neu5Ac(a2-6)Gal(b1-4)GlcNAc(b1-2)Man(a1-3)[Neu5Ac(a2-6)Gal(b1-4)GlcNAc(b1-2)Man(a1-6)]Man(b1-4)GlcNAc(b1-4)GlcNAc
# Summary of the method: as §1
# [36] = biological target: Neu5Ac(a2-6)Gal(b1-4)GlcNAc(b1-2)Man(a1-6)[Gal(b1-4)GlcNAc(b1-2)Man(a1-3)]Man(b1-4)GlcNAc(b1-4)GlcNAc
# Summary of the method: as §1
# [37] = biological target: Neu5Ac(a2-6)Gal(b1-4)GlcNAc(b1-2)Man(a1-6)[GlcNAc(b1-2)Man(a1-3)]Man(b1-4)GlcNAc(b1-4)GlcNAc
# Summary of the method: as §1
# [38] = biological target: Neu5Ac(a2-6)Gal(b1-4)GlcNAc(b1-3)Gal(b1-4)GlcNAc
# Summary of the method: as §1
# [39] = biological target: Neu5Ac(a2-6)Gal(b1-4)GlcNAc(b1-3)Gal(b1-4)[Fuc(a1-3)]GlcNAc(b1-3)Gal(b1-4)[Fuc(a1-3)]GlcNAc
# Summary of the method: as §1
# [40] = biological target: Neu5Ac(a2-6)Gal(b1-4)GlcNAc6S
# Summary of the method: as §1
# [41] = biological target: Neu5Ac(a2-6)GalNAc
# Summary of the method: as §1
# [42] = biological target: Neu5Ac(a2-6)GalNAc(b1-4)GlcNAc
# Summary of the method: as §1
# [43] = biological target: Neu5Ac(a2-8)Neu5Ac
# Summary of the method: as §1
# [44] = biological target: Neu5Ac(a2-8)Neu5Ac(a2-3)Gal(b1-4)Glc
# Summary of the method: as §1
# [45] = biological target: Neu5Ac(a2-8)Neu5Ac(a2-3)[GalNAc(b1-4)]Gal(b1-4)Glc
# Summary of the method: as §1
# [46] = biological target: Neu5Ac(a2-8)Neu5Ac(a2-8)Neu5Ac
# Summary of the method: as §1
# [47] = biological target: Neu5Ac(a2-8)Neu5Ac(a2-8)Neu5Ac(a2-3)Gal(b1-4)Glc
# Summary of the method: as §1
# [48] = biological target: Neu5Ac(a2-8)Neu5Ac(a2-8)Neu5Ac(a2-3)[GalNAc(b1-4)]Gal(b1-4)Glc
# Summary of the method: as §1
# [49] = biological target: Neu5Ac(a2-8)Neu5Ac(a2-8)Neu5Ac(a2-8)Neu5Ac(a2-3)[GalNAc(b1-4)]Gal(b1-4)Glc
# Summary of the method: as §1
# [50] = biological target: Neu5Ac(b2-6)Gal(b1-4)GlcNAc
# Summary of the method: as §1
# [51] = biological target: Neu5Ac(b2-6)GalNAc
# Summary of the method: as §1
# [52] = biological target: Neu5Ac9Ac(a2-6)Gal(b1-4)GlcNAc
# Summary of the method: as §1
# [53] = biological target: Neu5Gc(a2-3)Gal(b1-3)GlcNAc
# Summary of the method: as §1
# [54] = biological target: Neu5Gc(a2-3)Gal(b1-3)[Fuc(a1-4)]GlcNAc
# Summary of the method: as §1
# [55] = biological target: Neu5Gc(a2-3)Gal(b1-4)Glc
# Summary of the method: as §1
# [56] = biological target: Neu5Gc(a2-3)Gal(b1-4)GlcNAc
# Summary of the method: as §1
# [57] = biological target: Neu5Gc(a2-3)Gal(b1-4)[Fuc(a1-3)]GlcNAc
# Summary of the method: as §1
# [58] = biological target: Neu5Gc(a2-6)Gal(b1-4)GlcNAc
# Summary of the method: as §1
# [59] = biological target: Neu5Gc(a2-6)GalNAc
# Summary of the method: as §1
# [60] = biological target: Neu5Gc(b2-6)Gal(b1-4)GlcNAc
# Summary of the method: as §1
binder,measurement,setting,value
Surfactant Protein D (rat); Neck + Carbohydrate Recognition Domain (NCRD) (Rattus norvegicus) (protein) MLLFLLSALVLLTQPLGYLEAEMKTYSHRTMPSACTLVMCSSVESGLPGRDGRDGREGPRGEKGDPGLPGAAGQAGMPGQAGPVGPKGDNGSVGEPGPKGDTGPSGPPGPPGVPGPAGREGALGKQGNIGPQGKPGPKGEAGPKGEVGAPGMQGSAGARGAGPKGERGVPGERGVPGNTGAAGSAGAMGPQGSPGARGPPGLKGDKGIPGDKGAKGESGLPDVASLRQQVEALQGQVQHLQAAFSQYKKVELFPNGQSVGEKIFKTAGFVKPFTEAQLLCTQAGGQLASPRSAAENAALQQLVVAKNEAAFLSMTDSKTEGKFTYPTGESLVYSNWAPGEPNDDGGSEDCVEIFTNGKWNDRACGEKRLVVCEF,glycan array binding signal (z-score),[1],-0.113
same,glycan array binding signal (z-score),[2],-0.098
same,glycan array binding signal (z-score),[3],-0.096
same,glycan array binding signal (z-score),[4],-0.014
same,glycan array binding signal (z-score),[5],-0.191
same,glycan array binding signal (z-score),[6],-0.106
same,glycan array binding signal (z-score),[7],-0.151
same,glycan array binding signal (z-score),[8],-0.117
same,glycan array binding signal (z-score),[9],-0.177
same,glycan array binding signal (z-score),[10],-0.224
same,glycan array binding signal (z-score),[11],-0.14
same,glycan array binding signal (z-score),[12],-0.107
same,glycan array binding signal (z-score),[13],0.011
same,glycan array binding signal (z-score),[14],-0.239
same,glycan array binding signal (z-score),[15],-0.21
same,glycan array binding signal (z-score),[16],0.004
same,glycan array binding signal (z-score),[17],-0.103
same,glycan array binding signal (z-score),[18],-0.098
same,glycan array binding signal (z-score),[19],-0.165
same,glycan array binding signal (z-score),[20],-0.091
same,glycan array binding signal (z-score),[21],-0.104
same,glycan array binding signal (z-score),[22],0.006
same,glycan array binding signal (z-score),[23],0.061
same,glycan array binding signal (z-score),[24],-0.216
same,glycan array binding signal (z-score),[25],0.09
same,glycan array binding signal (z-score),[26],-0.091
same,glycan array binding signal (z-score),[27],-0.157
same,glycan array binding signal (z-score),[28],-0.236
same,glycan array binding signal (z-score),[29],-0.229
same,glycan array binding signal (z-score),[30],-0.161
same,glycan array binding signal (z-score),[31],-0.071
same,glycan array binding signal (z-score),[32],-0.126
same,glycan array binding signal (z-score),[33],-0.17
same,glycan array binding signal (z-score),[34],-0.085
same,glycan array binding signal (z-score),[35],0.111
same,glycan array binding signal (z-score),[36],-0.176
same,glycan array binding signal (z-score),[37],-0.097
same,glycan array binding signal (z-score),[38],-0.105
same,glycan array binding signal (z-score),[39],-0.085
same,glycan array binding signal (z-score),[40],0.308
same,glycan array binding signal (z-score),[41],0.018
same,glycan array binding signal (z-score),[42],-0.027
same,glycan array binding signal (z-score),[43],-0.161
same,glycan array binding signal (z-score),[44],-0.191
same,glycan array binding signal (z-score),[45],-0.103
same,glycan array binding signal (z-score),[46],-0.167
same,glycan array binding signal (z-score),[47],-0.048
same,glycan array binding signal (z-score),[48],0.016
same,glycan array binding signal (z-score),[49],0.044
same,glycan array binding signal (z-score),[50],-0.13
same,glycan array binding signal (z-score),[51],-0.156
same,glycan array binding signal (z-score),[52],-0.179
same,glycan array binding signal (z-score),[53],-0.103
same,glycan array binding signal (z-score),[54],-0.125
same,glycan array binding signal (z-score),[55],-0.156
same,glycan array binding signal (z-score),[56],-0.079
same,glycan array binding signal (z-score),[57],-0.088
same,glycan array binding signal (z-score),[58],-0.186
same,glycan array binding signal (z-score),[59],-0.219
same,glycan array binding signal (z-score),[60],-0.191
